From PubChem BioAssay AID1240 (Sanford-Burnham Center for Chemical Genomics, 2008)
Screen size: about 50,000 compounds; about 800 (1.6%) showed an effect of 50% or more. This is one part of the list.

Molecular target: Bcl-2-like protein 10 (Homo sapiens) (UniProt Q9HD36)
Assay: TR3 peptide-Bcl-B binding displacers, biochemical primary FP assay, phenotype converters (AID 1240);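 note: 0% = Bcl-B with tracer peptide and DMSO and 100% = tracer peptide lacking Bcl-B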
Details: GST-Bcl-B / FITC-TR3 peptide fluorescence polarization; stronger effect = higher value; compound at 3.75 mg/L

UniProt Q9HD36, sequence (Q9HD36 whole entry, looked up): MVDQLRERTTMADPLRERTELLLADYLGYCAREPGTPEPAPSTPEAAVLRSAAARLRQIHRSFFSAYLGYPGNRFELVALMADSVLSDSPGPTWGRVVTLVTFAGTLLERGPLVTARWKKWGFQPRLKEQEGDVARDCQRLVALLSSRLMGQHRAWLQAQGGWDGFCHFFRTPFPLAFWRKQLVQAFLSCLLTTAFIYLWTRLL

Structure (SMILES) | displacement
CCOc1ccc(S(=O)(=O)n2cnc3cc([N+](=O)[O-])ccc32)c2ccccc12 | 0.4%
O=C(NN1C(=O)/C(=C/c2ccc(O)c(O)c2)SC1=S)c1ccc(Br)cc1 | 29.8%
COc1ccc(/C(C)=N/NC(=O)CN(c2ccc(C)cc2)S(=O)(=O)c2ccccc2)cc1OC | 3.8%
Nc1ncnc2c1[nH]c(=S)n2[C@@H]1O[C@H](CO)[C@H](O)C1O (some centres undefined) | -9.4%
COc1ccc(C2Nc3ccccc3C(=O)N2c2ccc(Cl)cc2)cc1OC (centres undefined) | 9.9%
O=C(c1ccc(-c2ccccc2)cc1)N1CCNCC1 | -15.8%
CCN(CC)c1ccc(N=Cc2c(O)n(C)c(=O)n(C)c2=O)cc1 | 6.3%
C=CCN(CC=C)C(=O)COc1ccccc1 | 5.9%
O=C(Nc1ccccc1F)C1CC(=O)N(c2cccc([N+](=O)[O-])c2)C1 (centres undefined) | -5.6%
Fc1cccc(Cl)c1Cc1noc(-c2ccccc2)n1 | 14%
O=c1oc(-c2ccccc2Cl)nc2ccc(-c3ccc4nc(-c5ccccc5Cl)oc(=O)c4c3)cc12 | 11.6%
COC(=O)C1=C(C)N=c2s/c(=C\c3ccc(OC)c(OC)c3)c(=O)n2C1/C=C/c1ccccc1 (centres undefined) | 49.5%
O=c1[nH]c(=S)[nH]c(O)c1C(c1ccncc1)c1c(O)[nH]c(=S)[nH]c1=O | 6.1%
O=C(/C=C/c1ccc(F)cc1)NCc1ccccn1 | -35.8%
O=S(=O)(Nc1ccc(O)c(-c2nc3ccccc3o2)c1)c1ccccc1 | -6.9%
COc1cccc(/C=N/NC(=O)c2cc(C34CC5CC(CC(C5)C3)C4)[nH]n2)c1 | -7.4%
c1ccc(Nc2nc(-c3ccccn3)cs2)cc1 | -2.8%
COc1ccc(NC(=O)/C(=C\c2cccs2)NC(=O)c2ccccc2)cc1 | -3.6%
Nc1ncnc2ncc3c4ccccc4[nH]c3c12 | 10%
NC(=O)c1ccccc1NC(=O)c1cncc(Br)c1 | 8%
COc1cccc(NC(=O)COc2cc(C)c(Cl)c(C)c2)c1 | 13.1%
O=C(CSc1ncn[nH]1)Nc1ccc(Br)cc1 | -2.3%
C/C(=N\NC(=O)c1cccc(Cl)c1)c1ccccc1O | -5.3%
COc1cc(/C=N/N2C(=O)c3ccccc3C2=O)c([N+](=O)[O-])cc1OC | -1.8%
COc1cc(CN2CCN(C(=O)c3cccc(F)c3)CC2)cc(OC)c1O | 24.5%
N/C(=N\OC(=O)c1cccc(Cl)c1)c1ccncc1 | -12.8%
COC(=O)c1cc(C(=O)Nc2ccc(Br)cc2F)cc([N+](=O)[O-])c1 | -4.2%
O=C(COc1ccc(Cl)cc1)Nc1cc(C(F)(F)F)cc(C(F)(F)F)c1 | -10.6%
COc1cc(/C=C/c2[nH]c(=O)[nH]c(=O)c2[N+](=O)[O-])cc(Br)c1O | -1.3%
